# Assay results: patent US20120208234A1 (KANEKA, published 2012)
# Molecular target: T1, human immunoglobulin G drug separated from human plasma (Gammagard, Baxter) (human)
# T1 construct: also called human IgG
# Experiment: SPR, Biacore 3000; human IgG immobilized on CM5 chip, domain in flow; 25 C, pH 7.4; 1:1 fit
Binder,Ka,Kd,koff,kon
"C-wild (other, also called wild-type C domain of Protein A) GPLGSADNKFNKEQQNAFYEILHLPNLTEEQRNGFIQSLKDDPSVSKEILAEAKKLNDAQAPKC",7e+07 M⁻¹,14 nM,0.0021 s⁻¹,145000 M⁻¹ s⁻¹
C-G29V (designed binder) GPLGSADNKFNKEQQNAFYEILHLPNLTEEQRNVFIQSLKDDPSVSKEILAEAKKLNDAQAPKC,3.3e+07 M⁻¹,31 nM,0.0036 s⁻¹,119000 M⁻¹ s⁻¹
C-G29D (designed binder) GPLGSADNKFNKEQQNAFYEILHLPNLTEEQRNDFIQSLKDDPSVSKEILAEAKKLNDAQAPKC,3.2e+07 M⁻¹,31 nM,0.0031 s⁻¹,100000 M⁻¹ s⁻¹
C-G29L (designed binder) GPLGSADNKFNKEQQNAFYEILHLPNLTEEQRNLFIQSLKDDPSVSKEILAEAKKLNDAQAPKC,3.5e+07 M⁻¹,28 nM,0.0037 s⁻¹,131000 M⁻¹ s⁻¹
C-G29I (designed binder) GPLGSADNKFNKEQQNAFYEILHLPNLTEEQRNIFIQSLKDDPSVSKEILAEAKKLNDAQAPKC,3.5e+07 M⁻¹,29 nM,0.0033 s⁻¹,115000 M⁻¹ s⁻¹
C-G29F (designed binder) GPLGSADNKFNKEQQNAFYEILHLPNLTEEQRNFFIQSLKDDPSVSKEILAEAKKLNDAQAPKC,4.9e+07 M⁻¹,21 nM,0.0028 s⁻¹,134000 M⁻¹ s⁻¹
C-G29E (designed binder) GPLGSADNKFNKEQQNAFYEILHLPNLTEEQRNEFIQSLKDDPSVSKEILAEAKKLNDAQAPKC,3.8e+07 M⁻¹,26 nM,0.0033 s⁻¹,127000 M⁻¹ s⁻¹
C-G29T (designed binder) GPLGSADNKFNKEQQNAFYEILHLPNLTEEQRNTFIQSLKDDPSVSKEILAEAKKLNDAQAPKC,4.1e+07 M⁻¹,24 nM,0.003 s⁻¹,122000 M⁻¹ s⁻¹
C-G29Y (designed binder) GPLGSADNKFNKEQQNAFYEILHLPNLTEEQRNYFIQSLKDDPSVSKEILAEAKKLNDAQAPKC,5e+07 M⁻¹,20 nM,0.0033 s⁻¹,162000 M⁻¹ s⁻¹
